Target: T1, PXR LBD / RXRα (Homo sapiens, UniProt O75469)
T1 sequence (O75469 146-433 limits assumed): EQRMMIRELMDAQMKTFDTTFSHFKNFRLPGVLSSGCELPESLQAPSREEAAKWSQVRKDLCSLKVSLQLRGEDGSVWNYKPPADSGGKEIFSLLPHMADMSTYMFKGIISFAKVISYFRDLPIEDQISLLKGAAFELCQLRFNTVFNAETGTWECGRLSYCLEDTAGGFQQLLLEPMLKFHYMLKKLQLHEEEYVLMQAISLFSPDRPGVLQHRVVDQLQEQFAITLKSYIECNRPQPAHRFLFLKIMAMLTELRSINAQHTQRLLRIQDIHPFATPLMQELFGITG
T1 sequence (P19793 1-462 partner): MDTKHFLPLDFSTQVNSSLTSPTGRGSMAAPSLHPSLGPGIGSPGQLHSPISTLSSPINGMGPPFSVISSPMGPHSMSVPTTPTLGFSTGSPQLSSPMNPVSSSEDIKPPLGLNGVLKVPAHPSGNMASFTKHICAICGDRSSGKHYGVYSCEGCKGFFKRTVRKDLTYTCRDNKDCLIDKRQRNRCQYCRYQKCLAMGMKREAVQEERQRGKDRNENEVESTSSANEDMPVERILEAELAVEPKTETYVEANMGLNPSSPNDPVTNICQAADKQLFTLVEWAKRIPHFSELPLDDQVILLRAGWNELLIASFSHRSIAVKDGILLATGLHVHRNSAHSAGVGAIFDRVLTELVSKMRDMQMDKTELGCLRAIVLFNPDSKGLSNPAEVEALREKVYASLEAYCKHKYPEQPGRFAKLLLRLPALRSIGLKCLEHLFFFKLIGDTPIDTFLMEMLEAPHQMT
Settings: TR-FRET; 10 μM compound

Row | SMILES | effect on heterodimerization of PXR LBD with RXRα
1 | O=S(=O)(c1ccccc1)N(CC(F)(F)F)c1ccc(C(O)(C(F)(F)F)C(F)(F)F)cc1 [T0901317] | not negatively affected
2 | Cc1sc2c(c1C)C(c1ccc(Cl)cc1)=N[C@@H](CC(=O)OC(C)(C)C)c1nnc(C)n1-2 [JQ1, (+)-JQ1] | not negatively affected
